Reference: PMC4336329 (PLoS ONE, 2015)
Out of some 310,000 compounds screened, about 14,000 (4.5%) showed an effect of 50% or more. Effects have a minus sign here. This is one part of the list.

These molecules were tested against human ether-à-go-go-related gene (hERG) potassium channel (human, UniProt Q12809) (assay: primary screen, population patch clamp on CHO cells stably expressing hERG).
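Further: peak tail current of the secondary pulse compared with the same well before compound.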

human ether-à-go-go-related gene (hERG) potassium channel, sequence (Q12809 whole entry, looked up): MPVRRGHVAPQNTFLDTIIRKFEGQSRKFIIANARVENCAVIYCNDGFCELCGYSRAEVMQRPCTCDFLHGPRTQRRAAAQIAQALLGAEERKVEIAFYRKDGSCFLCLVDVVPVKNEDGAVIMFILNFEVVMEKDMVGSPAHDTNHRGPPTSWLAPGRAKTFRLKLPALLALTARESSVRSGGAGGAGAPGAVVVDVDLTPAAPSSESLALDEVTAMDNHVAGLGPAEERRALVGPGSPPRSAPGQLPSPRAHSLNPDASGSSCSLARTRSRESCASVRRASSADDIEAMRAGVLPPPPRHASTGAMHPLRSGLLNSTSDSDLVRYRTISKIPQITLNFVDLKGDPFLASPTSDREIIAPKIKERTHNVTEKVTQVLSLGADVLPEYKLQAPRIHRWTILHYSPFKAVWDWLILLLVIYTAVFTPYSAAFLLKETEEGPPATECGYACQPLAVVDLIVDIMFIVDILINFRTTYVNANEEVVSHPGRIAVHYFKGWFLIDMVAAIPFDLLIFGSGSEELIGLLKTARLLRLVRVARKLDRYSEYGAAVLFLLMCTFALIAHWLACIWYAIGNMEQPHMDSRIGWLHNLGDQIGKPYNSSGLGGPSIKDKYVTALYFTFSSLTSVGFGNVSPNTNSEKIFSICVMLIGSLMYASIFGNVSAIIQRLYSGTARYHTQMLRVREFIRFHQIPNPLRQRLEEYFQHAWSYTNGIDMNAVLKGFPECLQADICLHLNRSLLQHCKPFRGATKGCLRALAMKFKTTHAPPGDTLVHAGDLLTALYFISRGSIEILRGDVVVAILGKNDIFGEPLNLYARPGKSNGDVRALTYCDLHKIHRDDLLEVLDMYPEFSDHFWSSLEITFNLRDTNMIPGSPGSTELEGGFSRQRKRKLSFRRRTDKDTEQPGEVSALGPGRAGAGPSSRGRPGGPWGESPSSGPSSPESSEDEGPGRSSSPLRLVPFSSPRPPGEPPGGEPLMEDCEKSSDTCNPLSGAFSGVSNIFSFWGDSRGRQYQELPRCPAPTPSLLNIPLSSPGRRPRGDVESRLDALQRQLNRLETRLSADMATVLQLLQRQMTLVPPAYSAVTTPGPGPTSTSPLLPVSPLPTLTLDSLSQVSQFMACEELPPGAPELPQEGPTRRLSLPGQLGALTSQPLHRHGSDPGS

SMILES | hERG current change (%, negative = inhibition) at 10uM [%]
CC(OC(=O)c1nsc(Cl)c1Cl)C(=O)NCc1ccc2c(c1)OCO2 (centres unmarked) | -6.28
CCc1cccc(OCC2Cn3c(nc4c3c(=O)n(C)c(=O)n4C)O2)c1 (centres unmarked) | 3.18
CCOC(=O)CC1CCCCN1C(=O)c1ccc2nc(CCOC)oc2c1 (centres unmarked) | 16.3
CN(CC(=O)Nc1ccc(F)cc1Cl)Cc1cccs1 | -7.44
Cc1cccc(NC(=O)C(C)n2cc([N+](=O)[O-])cn2)n1 (centres unmarked) | -7.48
COc1ccc(N2CC(C(=O)Nc3c(C(N)=O)oc4ccccc34)CC2=O)cc1 (centres unmarked) | -15
CC1CC(C)CN(C(=O)C(NS(=O)(=O)c2ccc3c(c2)oc(=O)n3C)C(C)C)C1 (centres unmarked) | -9.31
COC(=O)C1=C(N)OC2=C(C(=O)CC(C)(C)C2)C1c1cc2c(cc1Cl)OCO2 (centres unmarked) | -2.53
COc1ccc(C(=O)Nc2cccc(/C(C)=N/NC(=O)c3ccc([N+](=O)[O-])c(C)c3)c2)cc1OC | -20
O=C(CN1CCN(c2ccccc2F)CC1)NCc1ccccc1 | -0.288
O=C(NC(=S)NNC(=O)c1cccs1)c1ccco1 | -1.93
CCNc1nc(SCCOc2ccccc2)nc(N(C)C)n1 | -14.5
COC(=O)C1CCN(Cc2nnc(-c3ccccc3)o2)CC1 | 16.1
O=C(OCn1nnc2ccccc2c1=O)c1cc2ccccc2o1 | 1.98
Cc1ccn2c(-c3csc(NCc4ccccc4)n3)c(C)nc2c1.Cl | -72.4
Cc1oc(C(C)(C)C)c(CN2CCCC2)c1C(=O)O.Cl | 13.4
CC(=O)[C@@]1(O)CC[C@H]2[C@@H]3C[C@H](C)C4=CC(=O)C=C[C@]4(C)[C@@]3(F)[C@@H](O)C[C@@]21C | 21.9
COC(=O)c1cccc(NC(=O)Cc2ccc(OC)cc2)c1C | 6.7
CCCCOc1ccc2c(c1)C(=O)c1cc(O)ccc1-2 | 7.75
CCn1c2ccccc2c2cc(/C=N/O)ccc21 | 40.6
CCN1/C(=C/c2cc[n+](C)cc2)C=Cc2cc(C)ccc21.[I-] | -72.2
O=C(Nc1ccc2c(c1)OCO2)N1CCC(CO)(CC2CCCCO2)CC1 (centres unmarked) | 24.6

SMILES | hERG current change (%, negative = inhibition) at 10uM [%]
COc1ccc(NS(=O)(=O)c2cccc3cccnc23)cc1OC | 24.2
C/C(CC(=O)Nc1cccc2c1CCCC2)=N\NC(=O)COc1ccccc1 | -14.9
COc1ccccc1N1CCN(C(=O)C2Cc3ccccc3CN2C(=O)c2ccco2)CC1 (centres unmarked) | -21
C=CCN1CCN(C(c2cc(OC)ccc2OC)c2nnnn2CC2CCCO2)CC1.Cl (centres unmarked) | 9.57
O=C1Nc2cc(Cl)c(Cl)cc2N(O)N1c1ccc(Cl)cc1 | -2.53
O=C(C1CCN(c2nnc(N3CCCC3=O)s2)CC1)N1CCN(c2cccc(C(F)(F)F)c2)CC1 | -29.2
Cc1ccc(S(=O)(=O)c2nc(Nc3ccccc3N3CCOCC3)sc2Cl)cc1 | 12.2
COc1ccc(CNC(=O)c2ccc(N3CCC4(CC3)CC(c3ccc(Cl)cc3)=NO4)c([N+](=O)[O-])c2)cc1 | 9.12
Cc1cccc(C)c1NC(=O)CN(C)C(=O)C1=COCCO1 | 13.6
Cc1[nH]c2ccccc2c1/C=N/NC(=O)c1cc(C(C)C)[nH]n1 | 12.6
Cc1noc(C)c1-c1nc(CSc2ccc(Cl)cc2)no1 | -21.4
CCOC(=O)CSc1cc(=O)n(CC)c2ccccc12 | -25.2
O=c1cc2c(nn1Cc1cccc([N+](=O)[O-])c1)-c1ccccc1CC2 | 12.4
CS(=O)(=O)OCCCCOS(C)(=O)=O | 20.2
c1ccc2c(c1)nc1n2CN(Cc2ccc3c(c2)OCO3)CN1 | -0.244
Cn1c(-c2cccs2)nc2ccccc21 | -0.436
Nc1nonc1-n1nnc(C(=O)N/N=C/c2cccc(Cl)c2Cl)c1CN1CCCC1 | 16.1
COCC(=O)N1CCC(Oc2ccc(C(=O)N3CCSCC3)cc2)CC1 | 17.4
CC(=O)OCC(=O)[C@H]1CC[C@H]2[C@@H]3CC=C4C[C@@H](O)CC[C@]4(C)[C@H]3CC[C@]12C | -2.42
CC(C)(C)C(=O)CSc1nnc(Nc2ccccc2)s1 | 0.783
CC(C(=O)NC1CCCCCC1)n1cc([N+](=O)[O-])cn1 (centres unmarked) | 4.74
CN(C)c1ccc(NC(=O)c2ccc(COc3cccc(Cl)c3)o2)cc1 | 0.95
